We go through 172 sequences from article PMC10668032.

This is one part of the list. At the low end of the ranking, values are background and their order means little.

This assay deals with SIX1-Q177R homeodomain (UniProt Q15475). Kind of assay: universal protein binding microarray. To be noted: Universal all-10-mer PBM (8x60K, AMADID 030236), 300 nM GST-tagged protein, Alexa Fluor 488 anti-GST; buffer, salt, pH and temperature not stated; high values mean tight binding; most listed sequences are background and not binding sites; double strand, one strand shown.
With ATTTGCTG, the binding signal is -0.278 E-score.

Regarding ACACGGTG, the binding signal worked out at 0.438 E-score.

Regarding ATGCCTAA, the binding signal is -0.0881 E-score.

As for CTGTAGTA, the binding signal worked out at 0.0773 E-score.

On to CCCAATTC, for which the binding signal was 0.0233 E-score.

Take TCAGGCGA: the binding signal is -0.0421 E-score.

With ACCTTCTA, the binding signal was -0.0416 E-score.

Consider ACCGCTGA, for which the binding signal came out at 0.0282 E-score.

With ACCCTGTG, the binding signal turned out to be 0.207 E-score.

Turning to TATTTGAA, the binding signal is -0.155 E-score.

As for TATCGTGA, the binding signal is -0.118 E-score.

On to ATGATAGA, for which the binding signal is -0.186 E-score.

AACACCTT: the binding signal came to 0.452 E-score.

Take CACCTGAA: the binding signal came out at 0.235 E-score.

In the case of CGAGAATA, the binding signal was -0.0601 E-score.

For CGAACTAG, the binding signal is -0.133 E-score.

For CGCACGAG, the binding signal was determined as 0.139 E-score.

On to ACCTCCCG, for which the binding signal worked out at 0.133 E-score.

For the sequence CTTCCCAC, the binding signal is -0.0901 E-score.

As for GCTCGGAA, the binding signal was -0.0699 E-score.

Consider GCTCGACA, for which the binding signal was -0.00535 E-score.

Regarding ATTATACG, the binding signal is -0.106 E-score.

Take AAAACCGG: the binding signal was -0.0839 E-score.

Consider CTTCAGTC, for which the binding signal was -0.231 E-score.

As for AGGCAACC, the binding signal is -0.214 E-score.

With GAGGGACC, the binding signal was -0.0368 E-score.

Consider CTTCCTTA, for which the binding signal was -0.0897 E-score.

CGCGTGTA: the binding signal was found to be 0.43 E-score.

Take AACGGATA: the binding signal turned out to be 0.0941 E-score.

For GGAGGTAC, the binding signal was -0.0532 E-score.

Consider CGCCGTTA, for which the binding signal was -0.101 E-score.

Consider CAAATAAG, for which the binding signal is -0.0839 E-score.

On to ACCATCAT, for which the binding signal was -0.0537 E-score.

Consider GCCGGTTA, for which the binding signal came to 0.0222 E-score.

Take ACCGAGGA: the binding signal was 0.152 E-score.

As for GATTAGAA, the binding signal is 0.00901 E-score.

As to CACGCAAG, the binding signal was found to be 0.123 E-score.

As for ATCAGTTG, the binding signal amounted to 0.0653 E-score.

For the sequence CACTCCTA, the binding signal stood at 0.206 E-score.

Regarding CTTCATGA, the binding signal is 0.0206 E-score.

For the sequence ACACATAC, the binding signal came to 0.18 E-score.

As for ACATTGTC, the binding signal is -0.0597 E-score.

In the case of CGCACGAA, the binding signal is 0.102 E-score.

Regarding ACGCGAGG, the binding signal is 0.123 E-score.

For CTCTTGAA, the binding signal was -0.0221 E-score.

Consider ACACAGTG, for which the binding signal amounted to 0.259 E-score.

As to AACCGCTG, the binding signal was -0.127 E-score.

With GTAGGCCA, the binding signal is -0.00103 E-score.

As to CAGGGTTC, the binding signal was -0.0387 E-score.

For the sequence ATCTATAA, the binding signal is -0.186 E-score.

Take AAATTCGG: the binding signal worked out at 0.0463 E-score.

Regarding AACGCCCG, the binding signal is 0.12 E-score.

Regarding CGCTGTAA, the binding signal is -0.121 E-score.

As to GTCGCGAC, the binding signal turned out to be 0.0839 E-score.

Turning to CGCACGCA, the binding signal turned out to be 0.0753 E-score.

Take TGATAGAA: the binding signal is -0.0326 E-score.

Consider AGGACAGA, for which the binding signal is -0.246 E-score.

Take GTCTACAC: the binding signal turned out to be 0.42 E-score.

Consider CTGGCATC, for which the binding signal was -0.0197 E-score.

In the case of ACGGAACA, the binding signal is 0.212 E-score.

Turning to GGCGATTA, the binding signal was -0.138 E-score.

As to ACGTGTAC, the binding signal was determined as 0.387 E-score.

Turning to ATAGATCG, the binding signal was -0.245 E-score.

In the case of GTCCAGTA, the binding signal was -0.1 E-score.

For the sequence CCATCGGC, the binding signal was -0.244 E-score.

With CAAGCAAC, the binding signal was -0.0429 E-score.

As for CGCGCACC, the binding signal was determined as 0.193 E-score.

On to AAGATTAA, for which the binding signal was -0.0325 E-score.

Regarding GCCCTCCC, the binding signal came out at 0.0286 E-score.

With CTTCCTCA, the binding signal was -0.0983 E-score.

On to ACACATCG, for which the binding signal is -0.0326 E-score.

Take CACGCTTA: the binding signal is 0.276 E-score.

For the sequence AGGGGTAT, the binding signal is 0.3 E-score.

For the sequence CGCCGGTC, the binding signal was -0.343 E-score.

On to AACGGGCG, for which the binding signal is -0.127 E-score.

Take TCGCGACA: the binding signal was determined as 0.0613 E-score.

As for CGGCAGTC, the binding signal is -0.115 E-score.

Turning to CAGATTCG, the binding signal is 0.161 E-score.

As for CCGACCCC, the binding signal was 0.24 E-score.

As for AGGCCCTC, the binding signal is -0.258 E-score.

In the case of TCTTGTAA, the binding signal is -0.112 E-score.

Consider AGCCATCG, for which the binding signal came to 0.0657 E-score.

For GTGTACGA, the binding signal is 0.439 E-score.

GAGATAAC: the binding signal was -0.154 E-score.

For AAGATATA, the binding signal is -0.135 E-score.

On to CGTGCCCC, for which the binding signal came to 0.0729 E-score.

Consider TAGCTATA, for which the binding signal is -0.0737 E-score.

On to AGAGATAG, for which the binding signal was -0.189 E-score.

As to AACGATAG, the binding signal was determined as 0.019 E-score.

In the case of TCAATTCA, the binding signal was -0.126 E-score.

In the case of AGGTGAAG, the binding signal was found to be 0.0364 E-score.

On to ACCTATAC, for which the binding signal was found to be 0.205 E-score.

For AAAAAGGC, the binding signal was -0.314 E-score.

As for AGATTGAA, the binding signal was 0.0443 E-score.

In the case of CAATGCAC, the binding signal was determined as 0.0545 E-score.

AAGTCTGT: the binding signal is -0.16 E-score.

Take GCCTTAAA: the binding signal is -0.306 E-score.

In the case of CAGGAAAA, the binding signal was found to be 0.044 E-score.

For the sequence CATACCGG, the binding signal was -0.0597 E-score.

Take TCTTTCAA: the binding signal was 0.00619 E-score.

For the sequence AGGAGAGG, the binding signal was -0.0668 E-score.

As to TGTGATAA, the binding signal is 0.0924 E-score.

Consider GAGCGATA, for which the binding signal was -0.0883 E-score.

CCGGCCAG: the binding signal was -0.00733 E-score.

As for ACCTTCGG, the binding signal came to 0.141 E-score.

As for CCGAGCCA, the binding signal is 0.0328 E-score.

In the case of ACTTGAGG, the binding signal came out at 0.0625 E-score.

Consider TGTCTTAA, for which the binding signal was found to be 0.022 E-score.

As to GTTCGTAA, the binding signal is -0.0759 E-score.

Take GCCCACGC: the binding signal was -0.232 E-score.

Take GACTGGAC: the binding signal is -0.185 E-score.

Take AACCGTGC: the binding signal worked out at 0.0611 E-score.

AGGTTTTA: the binding signal was -0.176 E-score.

Regarding AGCCGGTA, the binding signal is -0.0142 E-score.

In the case of GCATGTAC, the binding signal is -0.0968 E-score.

Take ATTTCGCG: the binding signal is -0.174 E-score.

With TCATACCA, the binding signal is -0.0855 E-score.

Take ACGACCCT: the binding signal came to 0.0887 E-score.

Consider CCAGGCGA, for which the binding signal is -0.0155 E-score.

For CATAATCA, the binding signal was -0.131 E-score.

For the sequence AGTTAACG, the binding signal was -0.0261 E-score.

Regarding AGCTCGGA, the binding signal is -0.124 E-score.

Turning to ACGGACCC, the binding signal was 0.127 E-score.

Consider TAGATGCA, for which the binding signal stood at 0.0103 E-score.

Take AGGGTGTA: the binding signal worked out at 0.475 E-score.

For TGTAGCAA, the binding signal was 0.128 E-score.

For the sequence TATATGAA, the binding signal was found to be 0.00389 E-score.

Regarding AACCTGTA, the binding signal was -0.217 E-score.

Regarding AAGCCCTA, the binding signal was -0.15 E-score.

On to AACGCACA, for which the binding signal worked out at 0.00611 E-score.

With CTATTTGC, the binding signal is -0.152 E-score.

Take AGAAGACC: the binding signal is -0.129 E-score.

GCCTGGAA: the binding signal is -0.179 E-score.

As for CTGCTTGC, the binding signal is -0.3 E-score.

For the sequence CCGTCACG, the binding signal was -0.0622 E-score.

Take ATCGTCTA: the binding signal is -0.0482 E-score.

CGCGGGAC: the binding signal is 0.0259 E-score.

Turning to AGTGCGGG, the binding signal turned out to be 0.0407 E-score.

Take AGTATAAG: the binding signal was -0.057 E-score.

As for AATTACTC, the binding signal was determined as 0.0272 E-score.

Consider AAGCCTGC, for which the binding signal is -0.209 E-score.

Regarding AAATTACC, the binding signal was -0.0497 E-score.

Consider TGGCTCAA, for which the binding signal was -0.199 E-score.

On to CTCCGAGA, for which the binding signal was -0.0574 E-score.

With AGGGTGTG, the binding signal turned out to be 0.4 E-score.

With GTCTTTAA, the binding signal was -0.161 E-score.

Turning to ATTCCGTA, the binding signal was -0.141 E-score.

Take CCGCGTTA: the binding signal was 0.0838 E-score.

As for CTTGAGCA, the binding signal is -0.105 E-score.

On to ATCTATCC, for which the binding signal was -0.0386 E-score.

Regarding AATGTGTG, the binding signal is 0.104 E-score.

Turning to CCCCATCA, the binding signal worked out at 0.186 E-score.

Regarding AAACCTGT, the binding signal was -0.21 E-score.

In the case of ATACTTAG, the binding signal was determined as 0.0236 E-score.

As for CCGCCTAA, the binding signal is -0.0448 E-score.

For ACTTCCCC, the binding signal was -0.11 E-score.

Regarding AGTCCTCG, the binding signal was -0.0778 E-score.

For GACGCAGC, the binding signal was -0.0663 E-score.

In the case of TTCATGAA, the binding signal was 0.094 E-score.

For the sequence CTCATCGA, the binding signal is -0.151 E-score.

Consider TAATGAAA, for which the binding signal is -0.137 E-score.

Regarding AAGAATGG, the binding signal is -0.217 E-score.

For the sequence AAGCATTC, the binding signal is -0.217 E-score.

As to CAGTGTGA, the binding signal worked out at 0.306 E-score.

Regarding AGAGGTCG, the binding signal was -0.111 E-score.

With CAACGGGA, the binding signal was -0.178 E-score.

As to CGATTGAG, the binding signal was -0.139 E-score.

Turning to GGCCGCAC, the binding signal was -0.0226 E-score.

Take CTTTGATA: the binding signal is -0.0103 E-score.

Take TACATGTA: the binding signal was determined as 0.069 E-score.

On to ACTATAAC, for which the binding signal came out at 0.137 E-score.

For CATAGCAC, the binding signal stood at 0.195 E-score.
